Assay results taken from PubChem BioAssay AID651820 (National Center for Advancing Translational Sciences (NCATS), 2012).
In all, about 340,000 compounds went through this assay and about 12,000 (3.5%) were called active. The inconclusive results got no clear call from the source; some entries with a clear call stand among them for comparison. The call rests on the fitted dose curve; in most records, active means well fitted inhibition curve with a large enough effect; inconclusive means small, poorly fitted or top-dose-only effect, or another doubt; inactive means no such curve, though single readings can be large or run the other way. Potencies of inconclusive entries are left out as doubtful fits.

Test: qHTS Assay for Inhibitors of Hepatitis C Virus (HCV)
Conditions: Huh7.5.1 HCVcc-Cre (HCVcc is cell-culture hepatitis C virus) infection, luciferase reporter, 44 h; activity change, negative = inhibition: at 41.8 µM (top of the series) unless noted
Method in brief: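 Infectious HCV cell culture screen: compound-treated cells (1,000/well, pre-plated 4 h) are infected with HCVcc-Cre at roughly 0.5 moi and grown 44 h. Infection is quantified by luciferase signal after 15 min substrate incubation at room temperature.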
On the % scale 0 is the no-effect control and ±100 the full control effect; potency means the concentration at half of the fitted maximal effect; tags describe the fitted curve by direction and shape.

Row | Structure (SMILES) | activity change, negative = inhibition | Potency
1 | CCN1CCC2(CC1)N=C(c1ccc(F)cc1)C(=S)N2 | inactive: -2.28% | 
2 | c1ccc(Oc2nnc(-c3cccs3)c3ccccc23)cc1 |  | inconclusive [inhibitor, single point]
3 | CCOC(=O)c1c(C)[nH]c(C(=O)CN2C(=O)NC(C)(C)C2=O)c1C |  | inconclusive [inhibitor, single point]
4 | CCc1ccc(Nc2n[n+](-c3ccccc3)c(-c3cccc(Cl)c3Cl)s2)cc1 |  | active: 10 µM
5 | CC(=O)C1=C(C)NC(SCC(=O)c2ccc(Cl)cc2Cl)=C(C#N)C1c1ccco1 (stereo not drawn) |  | active: 2.51 µM
6 | O=C(CCN1C(=O)C2CC=CCC2C1=O)Nc1ccccc1Cl (stereo not drawn) | inactive: -8.29% | 
7 | O=c1[nH]c(=O)n(-c2cccc3ccccc23)c(O)c1C=NCc1ccc2c(c1)OCO2 | inactive: 6.74% | 
8 | CCCCN1CC[C@H]2C=CC[C@@H](C(=O)N3CCN(c4ccccc4)CC3)[C@H]2C1=O | inactive: 4.85% | 
9 | CN1N=C2c3ccccc3CCC2C1c1ccc(F)cc1 (stereo not drawn) | inactive: 16.6% | 
10 | OC(COc1ccc2cc(Br)ccc2c1)Cn1ccnc1 (stereo not drawn) |  | inconclusive [inhibitor, single point]
11 | CC(=O)c1ccc(NS(=O)(=O)c2cc(-c3cnc(C4CC4)o3)ccc2C)cc1 | inactive: -0.781% | 
12 | Cn1c(=O)c(C(=O)CSc2nnc(Nc3ccccc3)s2)c(N)n(Cc2ccccc2)c1=O |  | inconclusive [inhibitor, single point]
13 | CCN1CCN(CCOc2ccc(Br)cc2C)CC1 |  | inconclusive [inhibitor, partial curve]
14 | CCOc1ccccc1NC(=O)c1ccoc1C |  | active: 6.31 µM
15 | O=C(CCN1C(=O)/C(=C/c2ccccc2)SC1=S)N[C@@H](CO)Cc1ccccc1 |  | inconclusive [inhibitor, partial curve]
16 | CN1CCN(CC(=O)Nc2ccc(Oc3ccccc3)cc2)CC1 |  | inconclusive [inhibitor, single point]
17 | O=C(c1ccc(S(=O)(=O)N2CCCCC2)cc1)N1CCN(CCN2C(=O)c3cccc4cccc(c34)C2=O)CC1 |  | inconclusive [inhibitor, partial curve]
18 | CCOc1ccc(NC(=O)CN(C)C(=O)c2ccc3nc(CC)c(CC)nc3c2)cc1OCC |  | inconclusive [inhibitor, partial curve]
19 | CCN1C(=O)[C@H]2[C@@H](c3ccc(-c4ccc(Cl)c(Cl)c4)c(OC)c3)N[C@@](C)(C(=O)OC)[C@H]2C1=O | inactive: -17.5% | 
20 | O=c1c(/C=N/O)c(Nc2ccccc2)nc2ccccn12 |  | inconclusive [inhibitor, single point]
21 | COc1ccc(S(=O)(=O)N2CCCC(C(=O)Nc3ccc(OC)c(OC)c3)C2)cc1 (stereo not drawn) |  | inconclusive [inhibitor, partial curve]
22 | COc1ccc(Nc2nc(N)nc(CSC(=S)N3CCCCC3C)n2)cc1 (stereo not drawn) |  | inconclusive [inhibitor, single point]
23 | Cc1cc(C(=O)Nc2ccc(N3CCOCC3)cc2)c2ccccc2n1 |  | inconclusive [inhibitor, single point]

Row | Structure (SMILES) | activity change, negative = inhibition | Potency
24 | CCc1nc(N2CCN(C(C)=O)CC2)c(C#N)c2c1COC(C)(C)C2 | inactive: -3.25% | 
25 | CCOC(=O)C1CCN(C(=O)Cn2nc(C)n3nc(-c4ccc(OC)cc4)cc3c2=O)CC1 |  | inconclusive [inhibitor, single point]
26 | CC(=O)c1sc(-c2ccc(F)cc2)cc1NS(=O)(=O)c1ccc(C)cc1 |  | inconclusive [inhibitor, single point]
27 | Oc1ccc(-c2csc(Nc3ncccn3)n2)cc1O |  | active: 11.2 µM
28 | Cc1cc(N)ccc1-c1cc2ccccc2oc1=O |  | inconclusive [inhibitor, single point]
29 | CCOc1ccc(S(=O)(=O)N(C)c2ccc(OCC(=O)Nc3nc4ccccc4s3)cc2)cc1 |  | inconclusive [inhibitor, partial curve]
30 | N/C(=N\OC(=O)c1ccc(OCC(F)(F)F)nc1)c1ccc(Cl)cc1 | inactive: 9.4% | 
31 | O=C(COc1ccc(Cl)cc1)Nc1ncc([N+](=O)[O-])s1 |  | inconclusive [inhibitor, partial curve]
32 | COc1nc(N2CCCCCC2)nc(N2CCCCCC2)n1 |  | active: 10 µM
33 | COc1cc(CCCN2C(=O)C(=O)NC[C@@H]2Cc2ccc(O)cc2)cc(OC)c1OC | inactive: 11.1% | 
34 | O=C(COc1ccc(F)c(Cl)c1)Nc1ccc(N2CCOCC2)cc1 | inconclusive: -38.7% [inhibitor] | 
35 | C#CCOCCOCCOCCNc1nc(N2CCN(C(=O)CCCCCCCCCCNC(=O)[C@H]([C@@H](C)CC)n3cc(CCCCN=C(N)N)nn3)CC2)nc(N2CCN(C(=O)CCCCCCCCCCNC(=O)[C@H](CO)n3cc(CCCSC)nn3)CC2)n1 |  | inconclusive [inhibitor, single point]
36 | Cn1c(=O)oc2cc(S(=O)(=O)NCc3ccncc3)ccc21 |  | inconclusive [inhibitor, single point]
37 | CC(C)C(=O)N1CCN(c2nc3ccc(Cl)cc3s2)CC1 |  | inconclusive [inhibitor, partial curve]
38 | COc1ccc(C)cc1Nc1nc(-c2c(C)[nH]c3ccccc23)cs1 |  | inconclusive [inhibitor, single point]
39 | CCSc1nc2ccccc2n1C(=O)/C=C\c1ccc(OC)c(OC)c1 |  | active: 14.1 µM
40 | CCSc1nnc(NC(=O)c2ccccn2)s1 |  | inconclusive [inhibitor, partial curve]
41 | CCC(C)C(=O)Nc1nc(-c2ccc3c(c2)NC(=O)CO3)cs1 (stereo not drawn) |  | inconclusive [inhibitor, partial curve]
42 | CCOc1cc(CNCCSc2nnnn2C)cc(Br)c1OCc1ccc(F)cc1 |  | inconclusive [inhibitor, partial curve]
43 | COc1ccc(CN(C(=S)Nc2ccccc2)C2CC(=O)N(c3ccccc3)C2=O)cc1 (stereo not drawn) |  | inconclusive [inhibitor, single point]
44 | Cc1cc(C)cc(NC(=O)C2CCN(S(=O)(=O)c3ccc4c(c3)NC(=O)C(C)S4)CC2)c1 (stereo not drawn) | inactive: 5.1% | 
45 | CC1=C(C(=O)Nc2ccc([N+](=O)[O-])cc2)C(c2cccc(C(F)(F)F)c2)NC(=S)N1c1ccccc1 (stereo not drawn) |  | inconclusive [inhibitor, partial curve, poor fit]
46 | O=C(O)CN1C(=O)/C(=C\C(Br)=C\c2ccccc2)SC1=S |  | inconclusive [inhibitor, full curve, poor fit]

Row | Structure (SMILES) | activity change, negative = inhibition | Potency
47 | CCOc1ccccc1OCCCC(=O)Nc1ccc(OC)nc1 |  | inconclusive [inhibitor, single point]
48 | CCCOc1cccc(-c2cc(C(=O)N/N=C/c3ccccn3)c3ccccc3n2)c1 |  | inconclusive [inhibitor, single point]
49 | COC(=O)[C@]1(C)N[C@H](CN(C)S(=O)(=O)c2ccccc2)[C@@H]2C(=O)N(Cc3ccccc3)C(=O)[C@@H]21 |  | inconclusive [inhibitor, single point]
50 | O=C(NCCCCCCNC(=O)c1cccs1)c1cccs1 | inactive: 0.544% | 
51 | NS(=O)(=O)c1cccc(NC(=O)CN2C(=O)C(=O)N(Cc3ccccc3)C2=O)c1 | inactive: -5.95% | 
52 | O=C(COC(=O)Cc1c(Cl)cccc1Cl)Nc1ccc(OC(F)(F)F)cc1 |  | inconclusive [inhibitor, partial curve]
53 | COC(=O)c1ccccc1NC(=O)c1c(Br)cnn1C |  | inconclusive [inhibitor, single point]
54 | COC(=O)C1=C(C)N(Cc2ccccc2)C(=NCC(C)C)N[C@H]1c1ccccc1 | inactive: -11.7% | 
55 | Cc1cccc(N2CCN(C(=O)c3ccc4c(c3)CCN4S(C)(=O)=O)CC2)c1C |  | inconclusive [inhibitor, single point]
56 | COC(=O)c1c(-c2ccc(S(C)(=O)=O)cc2)sc2cc(OC)ccc12 |  | inconclusive [inhibitor, full curve, poor fit]
57 | COc1ccc(C(CNC(=O)c2c(C)nn(Cc3ccccc3)c2Cl)N2CCOCC2)cc1 (stereo not drawn) | inactive: -5.61% | 
58 | O=C(c1cnccn1)N1CCc2ccccc21 | inactive: 13.7% | 
59 | Cc1cc2nc(N=C(N)N)nc(C)c2cc1C |  | inconclusive [inhibitor, partial curve]
60 | Cc1nc(SCc2ccc(OCCC(C)C)cc2)n[nH]1 |  | inconclusive [inhibitor, single point]
61 | COc1ccc(CNc2ncnc3cc(OC)c(OC)cc23)cc1 |  | inconclusive [inhibitor, partial curve]
62 | N#Cc1c(N2CCOCC2)nsc1-c1ccc(C(F)(F)F)cc1 |  | inconclusive [inhibitor, single point]
63 | O=C(NNC(=S)NC(=O)c1ccc(F)cc1)c1ccncc1 | inactive: 9.93% | 
64 | CCOC(=O)c1cc([N+](=O)[O-])sc1NC(=O)c1ccc(S(=O)(=O)N2CC3(C)CC2CC(C)(C)C3)cc1 (stereo not drawn) |  | inconclusive [inhibitor, single point]
65 | O=C(O)c1ccc(SCc2cnc(Cl)s2)cc1 | inactive: 11% | 
66 | COc1ccc(OC)c(C(=O)Nc2c(O)ccc3ccccc23)c1 |  | inconclusive [inhibitor, single point]
67 | COC(=O)c1ccc(Nc2nnc(-c3ccc(C)c(S(=O)(=O)NCC4CCCO4)c3)c3ccccc23)cc1 (stereo not drawn) |  | inconclusive [inhibitor, partial curve]
68 | COc1cc(/C=N/NC(=O)CNC(=O)/C=C/c2ccco2)cc(OC)c1OC | inactive: 11.8% | 
